In all, about 110,000 compounds went through this assay and about 230 (0.21%) showed an effect of 50% or more. The list shows a part of the results.
biological target: DPAP1 (Plasmodium falciparum, UniProt Q8IIJ9); assay: primary screen, percent inhibition; read by cleavage of a fluorogenic dipeptide substrate; higher = more effect of the substance; design: species or system P. falciparum D10 trophozoite lysates; single well
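Note: 30 min substrate incubation versus DMSO and 10 µM JCP410 controls.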

DPAP1, sequence (Q8IIJ9 whole entry, looked up): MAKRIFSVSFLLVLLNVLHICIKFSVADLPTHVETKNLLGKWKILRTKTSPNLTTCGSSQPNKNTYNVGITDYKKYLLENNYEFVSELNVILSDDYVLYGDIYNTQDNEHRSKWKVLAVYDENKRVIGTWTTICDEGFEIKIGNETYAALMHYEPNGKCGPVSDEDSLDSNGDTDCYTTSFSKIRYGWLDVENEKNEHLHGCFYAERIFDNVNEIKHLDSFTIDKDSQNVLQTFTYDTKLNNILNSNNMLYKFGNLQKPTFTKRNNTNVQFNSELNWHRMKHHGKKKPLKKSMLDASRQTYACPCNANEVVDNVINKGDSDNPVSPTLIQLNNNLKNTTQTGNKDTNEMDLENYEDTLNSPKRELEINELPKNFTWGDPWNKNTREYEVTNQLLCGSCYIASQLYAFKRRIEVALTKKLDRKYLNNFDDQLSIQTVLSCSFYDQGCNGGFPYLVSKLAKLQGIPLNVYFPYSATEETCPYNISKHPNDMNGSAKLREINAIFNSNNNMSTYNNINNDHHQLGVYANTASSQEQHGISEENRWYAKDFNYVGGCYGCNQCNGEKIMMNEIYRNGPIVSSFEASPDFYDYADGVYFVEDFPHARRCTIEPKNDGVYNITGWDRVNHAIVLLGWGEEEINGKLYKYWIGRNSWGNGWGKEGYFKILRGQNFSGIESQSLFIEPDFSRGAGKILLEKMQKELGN

SMILES | % Inhibition @ 10 uM
Cc1ccccc1Cn1ccc(NC(=O)c2nc3ncccn3n2)n1 | 1.72%
Cc1cc(-c2ccc(C)c(S(=O)(=O)N(C)Cc3ccco3)c2)on1 | -0.795%
CCN(CC)CCCNCc1ccc(F)cc1Cl | -1.34%
CNC(=O)C1=C(C)Nc2nc3ccccc3n2C1c1ccc(F)cc1 (stereo not drawn) | 2.5%
CC(C)C(NS(=O)(=O)c1ccc(Br)s1)C(=O)O (stereo not drawn) | -0.458%
O=C(c1ccco1)n1nc(-c2ccccc2)nc1NCc1ccccc1 | 5.5%
O=C1C(=Cc2ccco2)C(=O)N(c2ccccc2)C(=S)N1c1ccccc1 | -5.94%
COc1ccccc1CCNC1CCC(C(C)(C)C)CC1 (stereo not drawn) | -3.8%
O=P(O)(CN1CCOCC1)C1Cc2ccccc2C1 | -5.38%
COCC(C)NCc1cc(Br)ccc1OC (stereo not drawn) | -5.16%
CCC(C)N(CCCNC(=O)Cn1nc(Cc2cccnc2)c2ccccc2c1=O)Cc1ccco1 (stereo not drawn) | -2.16%
CC(C)(C)C(=O)NCCc1nc2ccccc2n1Cc1ccccc1F | -0.58%
COc1ccc(CNc2nc(-c3ccco3)nn2C(=O)C(C)C)cc1 | -1.47%
COc1ccc(CCCC(=O)Nc2cc(Cl)ccc2OC)cc1 | -4.48%
O=C(Nc1nc(-c2ccccc2)cs1)c1sc2cc(F)ccc2c1Cl | 0.986%
O=C(c1cc2c(s1)-c1ccccc1S(=O)(=O)C2)N1CCN(C2CCCCC2)CC1 | -4.23%
CC(C)CCN1CC(C(=O)NCc2ccccc2Cl)CC1=O (stereo not drawn) | 0.514%
O=C(Cc1c(C(=O)O)[nH]c2ccc(Cl)cc12)NCC1(c2ccccc2)CCCC1 | 22.6%
Cc1coc2c1c(C)cc1oc(=O)c(CC(=O)NCc3ccccc3)c(C)c12 | 7.17%
Cc1nc2ncnn2c(C)c1CCC(=O)NCCC(C)C | 1.26%
O=C(NCCCc1nc2ccccc2n1CCOc1ccccc1)c1ccco1 | -2.99%
CN1C(=O)CCC1(C(=O)O)c1ccccc1 (stereo not drawn) | 0.0538%
Cc1c(C(c2ccccc2)c2c(C)n(C)n(-c3ccccc3)c2=O)c(=O)n(-c2ccccc2)n1C | -6.52%
Cc1ccc(CNC(=O)CN(C)S(=O)(=O)c2ccc(F)cc2)cc1 | 4.75%
Cc1nnc(NCCC(C)C)c2c1nnn2Cc1ccccc1Cl | 0.00706%
COc1ccccc1/C=C(/NC(=O)c1ccccc1Cl)C(=O)N1CCOCC1 | 4.01%

SMILES | % Inhibition @ 10 uM
COc1ccc(CN2CCN(c3cccc(Cl)c3)CC2)cc1OC | 2.92%
CCc1ccc(CNC(=O)C2CCN(c3nc4ccccc4o3)CC2)cc1 | 2.05%
CCc1cc(-c2[nH]nc(C)c2-c2ccc3c(c2)OCCO3)c(O)cc1OC | 3.93%
Cc1ccc(NC(=O)COc2ccc(C#N)cc2)c(Br)c1 | -2.29%
Cc1nc2c(c(C)c1CCC(=O)N1CC(C)CC(C)C1)c(=O)n(C)c(=O)n2C (stereo not drawn) | 3.75%
CCOC(=O)c1cc(-c2ccc(OC)c(S(=O)(=O)NC3CCCCCC3)c2)on1 | -1.19%
Cc1ccc(/C=C2\N=C(c3ccc(Cl)cc3Cl)OC2=O)o1 | 2.81%
O=C(NCC(O)c1ccccc1)c1ccccc1 (stereo not drawn) | 5.53%
CNCc1cc2ccccc2o1 | -2.36%
O=C(c1ccc(C(F)(F)F)cc1)N1CCOCC1 | -8.85%
O=C(Nc1ccc(Br)cc1)[C@@H]1C2C=CC(C2)[C@@H]1C(=O)O (stereo partly drawn) | -7.42%
Cc1sc2ncn(CC(=O)NCCCC(=O)NCCCN3CCOCC3)c(=O)c2c1C | 6.64%
O=C(O)C1CC=CCC1C(=O)Nc1ccccc1C(=O)N1CCN(c2ccc(F)cc2)CC1 (stereo not drawn) | -2.67%
CCOC(=O)c1cc2c(=O)n3ccccc3nc2n(CCOC)/c1=N/C(=O)c1cccc2ccccc12 | -3.78%
CCCOc1ccc(C(=O)Nc2cccc(C(=O)Nc3nccs3)c2)cc1 | 2.42%
OC12CCCCC1C(c1ccc3ccccc3c1)NCC2 (stereo not drawn) | 1.54%
O=C(Nc1ccc(Cl)c(Cl)c1)C(=O)NC1CCCCC1 | 4.54%
CC(/N=C/c1c(O)oc2ccccc2c1=O)C(=O)O (stereo not drawn) | 1.74%
CN1C(=O)/C(=C/c2ccc(C(=O)O)cc2)S/C1=N/c1ccc(Cl)cc1 | 1.31%
COCCCNC(=O)c1cc2c(=O)n3ccccc3nc2n(Cc2ccco2)c1=N | 1.97%
CC(=O)c1cc(F)c(N2CCN(C(C)=O)CC2)cc1C | 3.65%
O=C(NC1CCCC1)c1nnc(-c2ccc(CN3CCc4ccccc4C3)cc2)o1 | 11.2%
CCOC(=O)c1cc(-c2ccc(OC)c(S(=O)(=O)NCc3cc(C)ccc3C)c2)on1 | -0.48%
COc1ccc(CNCc2cccs2)cc1OC | -2.76%
COc1ccc(-n2cnc3nc(C)c(C(C)=O)c(-c4ccccc4)c32)cc1 | -4.93%
CCCCNC(=O)C(=O)NCCN1CCOCC1 | -1.33%

SMILES | % Inhibition @ 10 uM
Cc1ccc2c(c1)c1c3n2CCN(CC#N)C3CCC1 (stereo not drawn) | -0.415%
COc1ccccc1Nc1nc(-c2ccc(F)cc2)cs1 | 1.13%
CCCNC(=O)c1cc2c(=O)n3cccc(C)c3nc2n1C | 0.189%
O=C(NC(c1ccccc1)c1c(O)ccc2ccccc12)c1ccccc1Br (stereo not drawn) | -0.152%
CC1(C)CC2=Nc3ccccc3NC(c3ccc(Br)cc3)C2=C(O)C1 (stereo not drawn) | 3.83%
CCn1cc(C2=NOC(C(=O)N3CCN(C(=O)c4ccco4)CC3)C2)c(C)n1 (stereo not drawn) | -1.37%
CN(C)S(=O)(=O)n1cc(/C=C/c2nc(N)nc(-c3ccccc3O)n2)c2ccccc21 | 3.36%
O=C(NCCCc1ccccc1)C1CCN(c2ncnc3c2sc2cccc(F)c23)CC1 | 1.03%
CCOC(=O)c1c(-c2ccccc2)csc1/N=C/c1ccc(O)c(OC)c1 | 0.0719%
CC1Cc2ccccc2N1S(=O)(=O)c1cnc(Cl)c(Br)c1 (stereo not drawn) | -1.51%
COc1ccc(-c2noc(C(=O)NCc3cc(C)nc4ccccc34)n2)cc1OC | 6.31%
COc1ccc(C2=NN(S(C)(=O)=O)C(c3cc4cc(OC)c(OC)cc4nc3Cl)C2)cc1 (stereo not drawn) | 2.76%
CCN(CC)CCN1C(=O)C(O)=C(C(=O)c2ccc(Cl)cc2)C1c1ccc(OC)cc1 (stereo not drawn) | 1.58%
O=c1c2c3c(sc2n2c(S)nnc2n1-c1ccccc1)CCC3 | -2.54%
COc1ccccc1CNc1nc2nc(C)cc(C)n2n1 | 0.795%
CC(NCCO)C(C)C(c1ccccc1)c1ccccc1 (stereo not drawn) | -2.36%
Cc1ccnc2nc(NC(=O)C(C)Oc3ccccc3)nn12 (stereo not drawn) | -1.31%
CC(=O)c1ccc(NC(=O)c2c(-c3ccccc3Cl)noc2C)cc1 | 0.823%
CCOc1ccc2nc3cc(N)ccc3c(N)c2c1 | 3%
COc1cccc(C(=O)Nc2nc3ccccc3[nH]2)c1OC | 4.44%
CS(=O)(=O)CCC(C(=O)N1CCc2ccccc2C1)N1Cc2ccccc2C1=O (stereo not drawn) | -3.53%
O=C(Cc1coc(-c2ccc(F)cc2)n1)NCc1ccccc1 | -5.81%
CCCCCn1cc(C(=O)c2ccc(C)cc2)c(=O)c2ccc(C)nc21 | -1.01%
N#CCCN(CCc1ccccc1)S(=O)(=O)c1cccc2nsnc12 | 3.25%
O=C(NCCc1ccc(Cl)cc1)C1CCCN(S(=O)(=O)c2cccc3nonc23)C1 (stereo not drawn) | -7.27%
CCc1ccc2c(c1)C1CC(C)(O2)N(CC)C(=S)N1 (stereo not drawn) | -4.94%

SMILES | % Inhibition @ 10 uM
Cc1ccc(C(=O)NCc2ccccc2)c(O)n1 | -0.261%
O=[N+]([O-])c1ccc(-c2cn3cc(Br)ccc3n2)cc1 | -6.18%
CCCCC1CCC(C(=O)NCC(c2ccco2)N2CCCC2)CC1 (stereo not drawn) | 0.401%
N=C1S/C(=C\c2cn(-c3ccccc3)nc2-c2cccs2)C(=O)N1c1nccs1 | -1.24%
O=C1N=C(Nc2ccccc2Cl)S/C1=C/c1cccnc1 | -5.07%
Cc1cccc(NC(=O)C2CCC(CNc3c(N4CCC(C)CC4)c(=O)c3=O)CC2)n1 (stereo not drawn) | -3.96%
Cc1ccc2nc(O)c3cc(C(=O)O)sc3c2c1 | -0.631%
CC(C)c1ccc(CNC(=O)c2ccc(C(C)(C)C)cc2)cc1 | -0.446%
CCC(C(=O)NC(C)CCc1ccco1)n1nc(C)n2c(cc3occc32)c1=O (stereo not drawn) | -7.54%
CCCOC(=O)Nc1nc(-c2ccc(C)cc2)c(C)s1 | 2.38%
N#CCNC(=O)C(Cc1ccc(Br)cc1)NC(=O)OCc1ccccc1 (stereo not drawn) | -0.413%
Cc1nc2nc(CCc3ccccc3)nn2c(C)c1Cl | 2.62%
COc1ccc(/C=C2/C=C(c3ccccc3)OC2=O)cc1OC | 1.25%
Cc1ccc(Sc2ccncc2S(=O)(=O)NC(=O)NC(C)(C)C)cc1 | 3.8%
Cc1ccc2c(c1)-c1onc(C(=O)NCCOC34CC5CC(CC(C5)C3)C4)c1CO2 | 1.42%
COc1cc(CN(CCO)Cc2ccccc2)c([N+](=O)[O-])cc1OC | 2.7%
CCOc1ccc2nc(N(CCN(C)C)C(=O)CCS(=O)(=O)c3ccccc3)sc2c1 | -7.35%
CC1(O)N(CCc2ccccc2)C(=O)OC12CCCCC2 (stereo not drawn) | 0.726%
CC(C)(O)C#Cc1ccc(C#CC(C)(C)O)s1 | -6.33%
COc1ccccc1CNC(=O)Cn1ncc2c(=O)oc3ccccc3c21 | 0.708%
CCN(CC)C(=O)C1CCCN(Cc2ccco2)C1 (stereo not drawn) | -0.0404%
Cc1ccc(O)c(CCc2ccccc2)n1 | 6.24%
COc1ccc2c(c1)Cc1sc(NC(=O)c3ccc(C)cc3)nc1-2 | 7.85%
CCc1onc2cc(C(=O)c3ccccc3)ccc12 | -6.11%

Reference: paper PMC6919601, “Identification of Plasmodium dipeptidyl aminopeptidase allosteric inhibitors by high throughput screening” (PLoS ONE, 2019)
